# Data from PubChem BioAssay AID686979 (National Center for Advancing Translational Sciences (NCATS), 2013).
# “And” between values parts separate entries of the source, which are not always exact repeats. Equal entries are not always repeated. The whole screen tested about 420,000 compounds, of which about 50,000 (12%) were called active. Inconclusive means that the source gave no clear call. Such entries were picked first, then a sample of the others. The call rests on the fitted dose curve; in most records, active means well fitted inhibition curve with a large enough effect; inconclusive means small, poorly fitted or top-dose-only effect; inactive means flat fitted curve, though single readings scatter. Potencies beside an inconclusive call are fits to weak or partial responses and may not hold up.
# Assay: qHTS for Inhibitors of human tyrosyl-DNA phosphodiesterase 1 (TDP1): qHTS in cells in presence of CPT; further: nearly all actives have a fitted effect of over 55% in size
# Conditions: chicken DT40 Tdp1-/-;hTDP1 cells + 20 nM CPT, ATP luminescence, 48 h; activity change, negative = growth inhibition: at 46.2 µM (top of the series)
# In short: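 Chicken DT40 Tdp1-/- cells complemented with human TDP1, 400 cells/well, exposed to compounds plus 20 nM camptothecin for at least 48 h at 37 C; viability read as ATP content by CellTiter-Glo luminescence.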
# On the % scale 0 is the no-effect control and ±100 the full control effect; potency means the concentration at half of the fitted maximal effect; tags describe the fitted curve by direction and shape.
SMILES,Potency,"activity change, negative = growth inhibition"
COc1ccccc1Nc1nc(NCCC(C)C)nc(N)c1[N+](=O)[O-],"inconclusive: 29.1 µM [inhibitor, single point]",–
Cc1cc(C)cc(NC(=O)c2c(C)oc3nc(C)nc(N4CCCC4)c23)c1,"inconclusive: 18.4 µM [inhibitor, single point]",–
CC(C)C(C)NC(=O)COc1nc2ccccc2nc1N(C)C1CCCCC1 (stereo unspecified),"inconclusive: 23.1 µM [inhibitor, single point]",–
N#Cc1ccc(NC(=S)/N=C(\N)c2ccccc2)cc1,"inconclusive: 18.4 µM [inhibitor, single point]",–
Cn1c2ccccc2c2cnn(CC(=O)Nc3ccccc3F)c(=O)c21,inactive,–
CC(C)CCn1c(=O)c2cccnc2n(CC(=O)Nc2ccccc2F)c1=O,"inconclusive: 29.1 µM [inhibitor, single point]",–
C#CCOCCOCCOCCNc1nc(N2CCN(C(=O)C([C@@H](C)O)n3cc([C@@H](N)CCCCN)nn3)CC2)nc(N2CCN(C(=O)[C@H](CCCCN)n3cc([C@@H](N)CC(N)=O)nn3)CC2)n1 (stereo partly specified),inactive,–
CCCS(=O)(=O)NC(=O)C1(C)CCN(C(=O)c2ccccc2C(F)(F)F)C1 (stereo unspecified),inactive,–
Cc1cccc(CC(=O)N2CCN=C2SCc2ccc([N+](=O)[O-])cc2)c1,"inconclusive: 23.1 µM [inhibitor, single point]",–
O=C(Nc1ccc(S(=O)(=O)Nc2nccs2)cc1)c1cnc(Cl)c(Cl)c1,"inconclusive: 29.1 µM [inhibitor, single point]",–
c1ccc2c(Nc3nc(N4CCOCC4)c4ccccc4n3)cccc2c1,active: 13 µM,–
O=C(C[n+]1ccccc1Cl)c1ccc(Br)cc1,"inconclusive: 22.4 µM [inhibitor, single point]",–
C[C@H](CO)N1C[C@H](C)[C@@H](CN(C)Cc2ccncc2)Oc2c(NC(=O)C3CCCCC3)cccc2C1=O,"inconclusive: 29.1 µM [inhibitor, single point]",–
Cn1c(SCC(=O)N2CCCc3ccccc32)nnc1-c1c[nH]c2ccccc12,inactive,–
O=C(Nc1ccccn1)c1ccc(Cl)c(S(=O)(=O)N2CCCCCC2)c1,–,inconclusive: -30.4% [inhibitor]
OC(CNCc1ccccc1C(F)(F)F)C(F)(F)F (stereo unspecified),inactive,–
COc1cccc(Cn2c(-c3nonc3NC(C)=O)nc3ccccc32)c1,active: 13 µM,–
COc1cc(/C=N/NC(=O)c2ccc(-c3ccccc3)cc2)cc(OC)c1OC,active: 20.6 µM,–
COc1cccc(-c2noc(-c3cc(C(C)C)[nH]n3)n2)c1OC,"inconclusive: 32.6 µM [inhibitor, single point]",–
COc1cc(/C=C2\SC(=Nc3cccnc3)NC2=O)cc(OC)c1OC,"inconclusive: 29.1 µM [inhibitor, partial curve]",–
Cc1nnc(N/N=C/c2cc(C)n(-c3ccc(F)cc3)c2C)n1N,active: 13 µM,–
Cc1ccc2nc(Nc3nc(C)cc(-c4ccccc4)n3)[nH]c(=O)c2c1,active: 20.6 µM,–

SMILES,Potency,"activity change, negative = growth inhibition"
CC1CCN(c2c(NCc3ccc(C(=O)NCc4ccccc4)cc3)c(=O)c2=O)CC1,"inconclusive: 32.6 µM [inhibitor, single point]",–
CCOC(=O)c1cc(C(=O)NNC(=O)c2cccc([N+](=O)[O-])c2)c(C)nc1C,"inconclusive: 18.4 µM [inhibitor, single point]",–
CC(=O)N1CCN(C(=O)c2ccc(-n3c(C)ccc3C)cc2)CC1,"inconclusive: 29.1 µM [inhibitor, single point]",–
COc1ccc(-c2noc(C)c2-c2ccc3ccccc3n2)c(O)c1,"inconclusive: 20.6 µM [inhibitor, single point]",–
C=CC[n+]1cccc2cccc(O)c21,inactive,–
NC(=O)c1cc2ccccc2o/c1=N\NC(=O)c1ccncc1,inactive,–
COc1ccc(C(=O)C2CCCN(C(=O)c3ccc4cc[nH]c4c3)C2)c(C)c1 (stereo unspecified),active: 16.4 µM,–
COc1ccc(-c2csc(NC(C)c3nc4cc(Cl)c(N5CCCCC5)cc4n3CCCO)n2)cc1 (stereo unspecified),active: 25.9 µM,–
COc1ccccc1C1CCN(C(=O)c2cnn(-c3ccccc3)c2C)CC1,active: 20.6 µM,–
C/C(N)=C(/C#N)C(=O)CSc1n[nH]c(-c2cccs2)n1,"inconclusive: 0.58 µM [inhibitor, single point]",–
CC(=O)Oc1c(C)cc(Cl)cc1C(=O)Nc1ccc([N+](=O)[O-])cc1Cl,active: 0.517 µM,–
COCCNC(=O)c1c(N)n(/N=C/c2cccs2)c2nc3ccccc3nc12,"inconclusive: 29.1 µM [inhibitor, single point]",–
O=C1CCN(CCc2ccccc2)CCN1CCOc1ccccc1,"inconclusive: 22.4 µM [inhibitor, single point] and inconclusive: 29.1 µM [inhibitor, single point]",–
COc1ccccc1NC(=O)c1ccc(NS(=O)(=O)c2ccc(F)c(Cl)c2)cc1,"inconclusive: 29.1 µM [inhibitor, single point]",–
O=C(Cn1c(=O)nc(-c2ccccc2F)c2cc(Cl)ccc21)NCCCc1ccccc1,"inconclusive: 18.4 µM [inhibitor, partial curve]",–
Cc1ccsc1C(=O)Nc1nc2ccccc2[nH]1,"inconclusive: 18.4 µM [inhibitor, single point]",–
Cc1cccc(NC(=O)c2sc3nc(-c4cc5ccc(O)cc5oc4=O)[nH]c(=O)c3c2C)c1,active: 20.6 µM,–
CCOC(=O)c1cccc(NC(=O)COc2ccc([N+](=O)[O-])cc2)c1,"inconclusive: 20.6 µM [inhibitor, single point]",–
Cc1c(C(=O)O/N=C(\N)c2ccccn2)cccc1[N+](=O)[O-],"inconclusive: 16.4 µM [inhibitor, partial curve, poor fit]",–
Cc1ccc(OCC(O)CN2CCc3ccccc3C2)c(C)c1 (stereo unspecified),active: 25.9 µM,–
O=C(COc1ccc(F)cc1)NCc1ccc2c(c1)CCN2C(=O)c1ccccc1,inactive,–
CNC(=O)c1ccc2c(c1)N(Cc1ccccc1Cl)C(=O)c1ccccc1S2,"inconclusive: 14.6 µM [inhibitor, single point]",–

SMILES,Potency,"activity change, negative = growth inhibition"
COc1cccc(NC(=O)CNc2cc(S(=O)(=O)N3CCOCC3)ccc2N2CCCC2)c1,"inconclusive: 20.6 µM [inhibitor, single point]",–
CCc1nnc(NC(=O)c2cc(-c3ccccn3)nc3ccc(Br)cc23)s1,inactive,–
COc1ccc(CN(C)C(=O)c2cc(S(=O)(=O)N3CCOCC3)ccc2N2CCCC2)cc1,"inconclusive: 23.1 µM [inhibitor, single point]",–
Cc1c(C)n(CCc2ccccc2)c2ncnc(NCCCO)c12,"inconclusive: 25.9 µM [inhibitor, single point]",–
CN(C)C(=O)c1cc2c(c(-c3cccc(-c4ccccc4F)c3)n1)[C@@H](CCO)N(S(C)(=O)=O)C2,inactive,–
COc1ccc(N2CCN(Cc3nnc(-c4ccc5c(c4)OCO5)o3)CC2)cc1,"inconclusive: 23.1 µM [inhibitor, single point]",–
Cc1csc(NC(=S)NC(=O)c2ccccc2)n1,"inconclusive: 29.1 µM [inhibitor, single point]",–
Cc1ccc(C)c(Cn2c3ccccc3c3cnn(CC(=O)NCCc4ccccc4)c(=O)c32)c1,"inconclusive: 3.26 µM [inhibitor, full curve]",–
O=c1c2c(-c3cccs3)csc2ncn1-c1ccc(Br)cc1,"inconclusive: 29.1 µM [inhibitor, single point]",–
Cc1nn(Cc2ccc(Cl)cc2)c(C)c1NC(=O)c1cc(-c2ccc3c(c2)OCO3)on1,active: 23.1 µM,–
Cc1ccc2c(c1)c1c3n2CCN(C(=O)c2cccc(C(F)(F)F)c2)C3CCC1 (stereo unspecified),"inconclusive: 29.1 µM [inhibitor, single point]",–
Cc1ccc(S(=O)(=O)Nc2cccc(C(=O)NCC3CCCO3)c2)cc1F (stereo unspecified),"inconclusive: 20.6 µM [inhibitor, single point]",–
CCOC(=O)Cc1csc(SCC(=O)Nc2ccc(C)cc2F)n1,"inconclusive: 29.1 µM [inhibitor, single point]",–
N=c1c(S(=O)(=O)c2ccc(Br)cc2)cc2c(=O)n3ccccc3nc2n1C1CCCCC1,"inconclusive: 29.1 µM [inhibitor, single point]",–
COc1ccc(CNC(=O)C2CCCN(c3nnc(C)c4c(C)n(-c5ccc(C)cc5)nc34)C2)cc1 (stereo unspecified),active: 13 µM,–
O=C1NC[C@@H](CCCCN2C[C@H](Cc3ccccc3)N(Cc3ccccc3)C(=O)C2=O)N(CC2CCCCC2)C1=O,"inconclusive: 29.1 µM [inhibitor, single point]",–
CCN(CC)S(=O)(=O)c1cccc(NC(=O)CN2C(=O)NC3(CCC(C)CC3)C2=O)c1 (stereo unspecified),"inconclusive: 16.4 µM [inhibitor, single point]",–
Cc1ccc(C(=O)N/C(=C\c2ccc(-c3cccc([N+](=O)[O-])c3)o2)C(=O)NCCCN2CCOCC2)cc1,"inconclusive: 29.1 µM [inhibitor, single point]",–
CC1CCN(CCCCOc2ccc(Br)cc2)CC1,"inconclusive: 29.1 µM [inhibitor, single point]",–
Oc1ccc(Cl)cc1CNc1cnc2ccccc2c1,"inconclusive: 16.4 µM [inhibitor, single point]",–
Fc1ccccc1Nc1nc(N2CCOCC2)nc(N2CCOCC2)n1,active: 20.6 µM,–
COc1ccc(C(=O)Nc2ccc(S(=O)(=O)Nc3nccnc3OC)cc2)cc1,–,inconclusive: -33% [inhibitor]
